{"source": "paper PMC4336329", "about": "(PLoS ONE, 2015)", "note": "The whole screen tested about 310,000 compounds, of which about 2,200 (0.71%) showed an effect of 50% or more. The effect is printed as a negative number. The list shows a part of the results."}
{"biological_target": "human ether-à-go-go-related gene (hERG) potassium channel (human, UniProt Q12809)", "sequence (Q12809 whole entry, looked up)": "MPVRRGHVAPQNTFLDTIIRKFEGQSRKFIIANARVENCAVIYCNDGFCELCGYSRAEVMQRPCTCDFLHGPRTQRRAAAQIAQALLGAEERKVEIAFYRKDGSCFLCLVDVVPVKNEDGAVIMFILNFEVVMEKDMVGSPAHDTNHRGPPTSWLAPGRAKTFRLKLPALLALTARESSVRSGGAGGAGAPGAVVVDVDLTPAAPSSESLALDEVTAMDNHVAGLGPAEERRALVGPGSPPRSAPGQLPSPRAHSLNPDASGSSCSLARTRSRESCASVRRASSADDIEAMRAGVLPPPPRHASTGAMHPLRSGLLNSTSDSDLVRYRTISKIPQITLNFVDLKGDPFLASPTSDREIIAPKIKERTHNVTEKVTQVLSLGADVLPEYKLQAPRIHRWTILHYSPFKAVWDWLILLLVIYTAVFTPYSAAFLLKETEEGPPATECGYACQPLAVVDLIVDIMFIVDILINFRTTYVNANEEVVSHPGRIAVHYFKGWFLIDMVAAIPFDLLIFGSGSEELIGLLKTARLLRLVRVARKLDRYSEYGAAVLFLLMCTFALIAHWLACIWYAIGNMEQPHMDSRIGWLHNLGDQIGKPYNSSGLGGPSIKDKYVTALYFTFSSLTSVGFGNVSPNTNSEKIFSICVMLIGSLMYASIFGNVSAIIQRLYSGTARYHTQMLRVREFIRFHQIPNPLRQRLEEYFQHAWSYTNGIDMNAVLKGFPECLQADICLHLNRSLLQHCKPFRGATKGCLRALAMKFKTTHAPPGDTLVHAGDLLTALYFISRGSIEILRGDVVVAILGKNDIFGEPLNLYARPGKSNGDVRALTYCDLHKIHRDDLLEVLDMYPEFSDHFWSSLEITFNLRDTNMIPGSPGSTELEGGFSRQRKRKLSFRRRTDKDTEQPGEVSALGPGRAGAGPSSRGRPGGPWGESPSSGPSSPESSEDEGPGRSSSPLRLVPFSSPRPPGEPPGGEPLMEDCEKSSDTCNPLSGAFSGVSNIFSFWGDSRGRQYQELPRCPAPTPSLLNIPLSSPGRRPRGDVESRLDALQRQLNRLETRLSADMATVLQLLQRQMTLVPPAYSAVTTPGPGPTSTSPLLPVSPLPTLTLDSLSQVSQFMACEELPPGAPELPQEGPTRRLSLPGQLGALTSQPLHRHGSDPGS", "test": "primary screen, population patch clamp on CHO cells stably expressing hERG", "units": {"hERG current change (%, negative = inhibition) at 1uM": "%"}}
{"smiles": "COc1ccc(NC(=O)c2cc(=O)c3ccccc3o2)cc1Cl", "hERG current change (%, negative = inhibition) at 1uM": 20}
{"smiles": "COc1cc(/C=C/C(=O)O)cc(S(=O)(=O)NCc2ccco2)c1OC", "hERG current change (%, negative = inhibition) at 1uM": 10.6}
{"smiles": "O=C1C(=O)c2ccccc2C([O-])=C1[n+]1ccccc1", "hERG current change (%, negative = inhibition) at 1uM": -2.05}
{"smiles": "CC12CCC(=O)N1C(C(=O)O)Cc1c2[nH]c2ccccc12", "note": "(centres unmarked)", "hERG current change (%, negative = inhibition) at 1uM": 10}
{"smiles": "Cc1nnc(NC(=O)C2CCCN(S(=O)(=O)c3ccccc3C(F)(F)F)C2)s1", "note": "(centres unmarked)", "hERG current change (%, negative = inhibition) at 1uM": 8.48}
{"smiles": "CCOc1ccc(-c2cc(C(=O)N3CCN(C)CC3)c3ccccc3n2)cc1", "hERG current change (%, negative = inhibition) at 1uM": -0.0034}
{"smiles": "CCC(=O)OCCNc1cc(Sc2nc3ccccc3s2)c2nonc2c1[N+](=O)[O-]", "hERG current change (%, negative = inhibition) at 1uM": 6.31}
{"smiles": "CC(C)(C)OC(=O)NCCc1nnc(SCC(=O)Nc2cccc(Cl)c2)o1", "hERG current change (%, negative = inhibition) at 1uM": 10.3}
{"smiles": "S=c1[nH]c2ccccc2n2c(=S)[nH]nc12", "hERG current change (%, negative = inhibition) at 1uM": 16.3}
{"smiles": "COc1cc2c3c(c1)c(N=NC(N)=S)c(O)n3C(C)(C)C=C2C", "hERG current change (%, negative = inhibition) at 1uM": 18.4}
{"smiles": "O=C(CN(C(=O)c1csnn1)c1ccc(Cl)cc1)NC1CCCC1", "hERG current change (%, negative = inhibition) at 1uM": 11.2}
{"smiles": "CCN(C(=O)C1CC1)C1CCS(=O)(=O)C1", "note": "(centres unmarked)", "hERG current change (%, negative = inhibition) at 1uM": 9.67}
{"smiles": "COc1cccc(-c2cc(C(F)(F)F)c3c(N)c(C#N)sc3n2)c1", "hERG current change (%, negative = inhibition) at 1uM": 11.3}
{"smiles": "O=c1c2ccccc2nc(SCc2ccncc2)n1CC1CCCO1", "note": "(centres unmarked)", "hERG current change (%, negative = inhibition) at 1uM": -17.8}
{"smiles": "C/C=C\\C=C/C(=O)Nc1cccc(C2=NOC3(C2)C[C@@H](C(N)=O)N(C(=O)C2(C)CC2)C3)c1", "note": "(some centres unmarked)", "hERG current change (%, negative = inhibition) at 1uM": 8.83}
{"smiles": "C=CCN(C(=O)CN1CCOCC1)c1nc(C)c(-c2ccccc2)s1", "hERG current change (%, negative = inhibition) at 1uM": 10.3}
{"smiles": "Cc1ccc(N(CC(O)CN2CCCCC2)S(=O)(=O)c2ccccc2)cc1", "note": "(centres unmarked)", "hERG current change (%, negative = inhibition) at 1uM": -68.7}
{"smiles": "COc1ccc(/C=N/n2c(-c3ccccc3)n[nH]c2=S)cc1", "hERG current change (%, negative = inhibition) at 1uM": -4.75}
{"smiles": "Cc1cnc(C(=O)OCC(=O)c2ccc[nH]2)cn1", "hERG current change (%, negative = inhibition) at 1uM": 21.4}
{"smiles": "Cc1nc2ccc(S(=O)(=O)NCC(=O)Nc3cccc(F)c3)cc2s1", "hERG current change (%, negative = inhibition) at 1uM": 8.18}
{"smiles": "Cc1ccc(N(CC(=O)NCc2ccccc2)C(=O)CCC(=O)Nc2ccccn2)c(C)c1", "hERG current change (%, negative = inhibition) at 1uM": 11.7}
{"smiles": "Cc1ccc(-c2nnc3ccc(SCC(=O)N4CCCc5ccccc54)nn23)cc1", "hERG current change (%, negative = inhibition) at 1uM": 11.8}
{"smiles": "O=C(NNC(=O)c1ccccc1F)c1ccc(Cl)c(S(=O)(=O)N2CCOCC2)c1", "hERG current change (%, negative = inhibition) at 1uM": 9.72}
{"smiles": "Cc1cc(C)c(S(=O)(=O)/N=C2/C=C(Sc3ncn[nH]3)C(=O)c3ccccc32)cc1C", "hERG current change (%, negative = inhibition) at 1uM": 15.2}
{"smiles": "CCOC(=O)c1cnn(-c2ccccc2)c1-n1cccc1C(=O)C(=O)N(CC)CC", "hERG current change (%, negative = inhibition) at 1uM": 8.14}
{"smiles": "Cc1nc2n(n1)C(c1ccccc1)C1=C(CC(c3ccco3)CC1=O)N2", "note": "(centres unmarked)", "hERG current change (%, negative = inhibition) at 1uM": 8.8}
{"smiles": "COc1ccc(CNC(=O)c2ccc3ccccc3n2)cc1OC", "hERG current change (%, negative = inhibition) at 1uM": 16.9}
{"smiles": "CN1CCN(c2c(N)c(=O)oc3ccccc23)CC1", "hERG current change (%, negative = inhibition) at 1uM": -7.56}
{"smiles": "O=c1c(/C=N/OCc2ccc(Cl)cc2Cl)c[nH]n1-c1cccc(Cl)n1", "hERG current change (%, negative = inhibition) at 1uM": 13.8}
{"smiles": "Cn1nnnc1SCC(=O)N1CCc2ccccc2C1", "hERG current change (%, negative = inhibition) at 1uM": 6.58}
{"smiles": "COCC(=O)N1CCN(c2cccc(C(F)(F)F)c2)CC1.Cl", "hERG current change (%, negative = inhibition) at 1uM": 6.09}
{"smiles": "CCCCn1c(Cn2nc(C(=O)O)c3ccccc3c2=O)nc2cc(S(N)(=O)=O)ccc21", "hERG current change (%, negative = inhibition) at 1uM": 12.7}
{"smiles": "CCNC(=S)N(CCCO)Cc1cc2cc3c(cc2[nH]c1=O)OCCO3", "hERG current change (%, negative = inhibition) at 1uM": 11.4}
{"smiles": "O/N=C\\c1cccn1-c1ccc(Br)cc1", "hERG current change (%, negative = inhibition) at 1uM": 10.6}
{"smiles": "COc1cccc(OC)c1NC(=O)C1CCCN1C(=O)Nc1cccc(Cl)c1", "note": "(centres unmarked)", "hERG current change (%, negative = inhibition) at 1uM": 6.74}
{"smiles": "O=[N+]([O-])c1ccc(N=Cc2c(O)ccc3ccccc23)cc1", "hERG current change (%, negative = inhibition) at 1uM": 7.86}
{"smiles": "Cc1ccc2c(C(=O)CN3CCCCC3CCO)c(C)[nH]c2c1", "note": "(centres unmarked)", "hERG current change (%, negative = inhibition) at 1uM": 6.91}
{"smiles": "CC(C)CCN1CCN(Cc2ccc(N3CCNC3=O)cc2)CC1CCO", "note": "(centres unmarked)", "hERG current change (%, negative = inhibition) at 1uM": -2.5}
{"smiles": "CCCCn1c(N)c(N(CCOC)C(=O)c2ccc(N3C(=O)CCC3=O)cc2)c(=O)[nH]c1=O", "hERG current change (%, negative = inhibition) at 1uM": 9.15}
{"smiles": "Cc1ccc(CNC(=O)c2ccccc2NS(=O)(=O)c2ccc(Cl)nc2)cc1", "hERG current change (%, negative = inhibition) at 1uM": 9.75}
{"smiles": "Cc1cc([N+](=O)[O-])c(C)cc1-c1ccc(/C=N/NC(=O)c2cccnc2)o1", "hERG current change (%, negative = inhibition) at 1uM": 2.63}
{"smiles": "CSCCC(=O)N1CC[C@@H](N2CCN(c3ccccc3F)CC2)[C@H](O)C1", "hERG current change (%, negative = inhibition) at 1uM": 8.82}
{"smiles": "Cc1cccc(NC(=O)[C@H](Cc2ccccc2)NC(=O)[C@@H]2Cc3ccccc3CN2)c1", "hERG current change (%, negative = inhibition) at 1uM": 11.1}
{"smiles": "N#Cc1c(-c2ccccc2)c(C#N)c2nc3ccccc3n2c1N", "hERG current change (%, negative = inhibition) at 1uM": 11.6}
{"smiles": "C=Cn1ccnc1P(=S)(c1nccn1C=C)c1nccn1C=C", "hERG current change (%, negative = inhibition) at 1uM": 16.5}
{"smiles": "CCCCN(C)C(=O)c1nc2ccccn2c1CNCCCn1ncc2ccccc21", "hERG current change (%, negative = inhibition) at 1uM": -13.9}
{"smiles": "CCC/C(=N\\NC(=O)c1ccco1)c1ccc(Cl)s1", "hERG current change (%, negative = inhibition) at 1uM": 9.1}
{"smiles": "CN(C)CCOCCOc1ccc(Cl)cc1C(C)(C)C.O=C(O)C(=O)O", "hERG current change (%, negative = inhibition) at 1uM": 19.6}
{"smiles": "Cc1ccc2c(c1)c1cccc3c1n2CCN3CCC(N)=O", "hERG current change (%, negative = inhibition) at 1uM": 6.55}
{"smiles": "O=C(N/N=C/c1cc2cc3c(cc2nc1Cl)OCO3)c1ccncc1", "hERG current change (%, negative = inhibition) at 1uM": 15.6}
{"smiles": "COc1ccc(/C=C/C(=O)OCC(=O)NCCC2=CCCCC2)cc1", "hERG current change (%, negative = inhibition) at 1uM": 11}
{"smiles": "Cc1occc(=O)c1OCc1c(Cl)cccc1Cl", "hERG current change (%, negative = inhibition) at 1uM": 12.9}
{"smiles": "C[C@@]12C(=O)N(c3cccc(F)c3)C(=O)N1[C@H](c1ccc(F)cc1)[C@@H]1C(=O)N(C3CCCCC3)C(=O)[C@@H]12", "hERG current change (%, negative = inhibition) at 1uM": 11.4}
{"smiles": "CC(C)(C)NC(=O)NC(=O)COC(=O)c1cc(=O)[nH]c2ccccc12", "hERG current change (%, negative = inhibition) at 1uM": 0.89}
{"smiles": "C=CCn1c(CSCc2ccccc2)nnc1SCC(=O)N1CCN(c2ccccc2)CC1", "hERG current change (%, negative = inhibition) at 1uM": 1.93}
{"smiles": "CC1SC2(NC1=O)C1CC3CC(C1)CC2C3", "note": "(centres unmarked)", "hERG current change (%, negative = inhibition) at 1uM": 2.81}
